# Laboratory results as given in the supplement of paper PMC8728848.
# The list shows a part of the results.
# B1: PX9896A-bth-573-26-573 (Bacteroides thetaiotaomicron) (protein)
# chain: ETNNLKTKEDMYKYFGTSKSMLTHVYSYMPQGYQLFATSGGIFTEDRYSMRDCASDDGEFGAYADNIQNTNNGNWSPIKTYDDSWTLYRGIRAANSFIAEIAQVDFTRYEHDGQYTNWMKQLKYFPYEARVLRAHYFFELARRYGDIAMPLEVLTEEEANTIGKTPFSEVISFIVSECDDAANNLPDSYVNEPGAEIGRVTKGFAMAVKSKALLYAASKLHNPSMDTELWKKSAKAAIDIINTGLYSLDPQESANNLDSKEVVLMRINGDDSDFEMFNLPLRMTAGTRTSSLIPYSNYPSQNLVDAFETVNGYKVTLENTGWVCEDPAFDPQSPYENRDKRFYRAILANGMSFKDYTIETFKGGADDGIVSQGGSPTGYFLRKYIQEATSFEPGKEAVSKHHWVIYRYAETLLTYAESMVNAFNDVNYTDETYKYSALWAINEVRKNADMPLIPSMGKDEFMERLYNEWRVEFAFEDHRFWDVRRWKIADTTQRELYGVKIEKQADGTFNFYKNLYETRNWRDCMYLYPIPQSELYKNTNLNPQNTGW
# Assays:
# Experiment in all cases: glycan array binding signal (z-score within array); higher = stronger binding
# Conditions in all cases: glycan notation: IUPAC condensed, linker removed
# Fuc(a1-2)Gal = biological target: Fuc(a1-2)Gal
# Summary of the method: (§1)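 The binding signal is a Z-score computed within each array and averaged over linkers. Arrays of the same protein sequence at different concentrations or buffers were also averaged together. Data originate from 3228 arrays in the Consortium for Functional Glycomics database, kept only where the protein sequence was available.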
# Fuc(a1-2)Gal(b1-3)GalNAc = biological target: Fuc(a1-2)Gal(b1-3)GalNAc
# Summary of the method: as §1
# [1] = biological target: Fuc(a1-2)Gal(b1-3)GalNAc(a1-3)[Fuc(a1-2)]Gal(b1-4)Glc
# Summary of the method: as §1
# [2] = biological target: Fuc(a1-2)Gal(b1-3)GalNAc(a1-3)[Fuc(a1-2)]Gal(b1-4)GlcNAc
# Summary of the method: as §1
# [3] = biological target: Fuc(a1-2)Gal(b1-3)GalNAc(b1-3)Gal
# Summary of the method: as §1
# [4] = biological target: Fuc(a1-2)Gal(b1-3)GalNAc(b1-3)Gal(a1-4)Gal(b1-4)Glc
# Summary of the method: as §1
# [5] = biological target: Fuc(a1-2)Gal(b1-3)GalNAc(b1-4)[Neu5Ac(a2-3)]Gal(b1-4)Glc
# Summary of the method: as §1
# Fuc(a1-2)Gal(b1-3)GlcNAc = biological target: Fuc(a1-2)Gal(b1-3)GlcNAc
# Summary of the method: as §1
# [6] = biological target: Fuc(a1-2)Gal(b1-3)GlcNAc(b1-2)Man(a1-3)[Fuc(a1-2)Gal(b1-3)GlcNAc(b1-2)Man(a1-6)]Man(b1-4)GlcNAc(b1-4)GlcNAc
# Summary of the method: as §1
# [7] = biological target: Fuc(a1-2)Gal(b1-3)GlcNAc(b1-2)Man(a1-3)[Fuc(a1-2)Gal(b1-3)GlcNAc(b1-2)Man(a1-6)]Man(b1-4)GlcNAc(b1-4)[Fuc(a1-6)]GlcNAc
# Summary of the method: as §1
# [8] = biological target: Fuc(a1-2)Gal(b1-3)GlcNAc(b1-3)Gal(b1-4)Glc
# Summary of the method: as §1
# [9] = biological target: Fuc(a1-2)Gal(b1-3)GlcNAc(b1-3)GalNAc
# Summary of the method: as §1
# [10] = biological target: Fuc(a1-2)Gal(b1-3)GlcNAc(b1-3)[Fuc(a1-2)Gal(b1-3)GlcNAc(b1-6)]GalNAc
# Summary of the method: as §1
# [11] = biological target: Fuc(a1-2)Gal(b1-3)GlcNAc(b1-3)[Gal(b1-4)GlcNAc(b1-6)]Gal(b1-4)Glc
# Summary of the method: as §1
# [12] = biological target: Fuc(a1-2)Gal(b1-3)GlcNAc(b1-3)[Neu5Ac(a2-6)Gal(b1-4)GlcNAc(b1-6)]Gal(b1-4)Glc
# Summary of the method: as §1
# [13] = biological target: Fuc(a1-2)Gal(b1-3)GlcNAc6S
# Summary of the method: as §1
# [14] = biological target: Fuc(a1-2)Gal(b1-3)[Fuc(a1-4)]GlcNAc
# Summary of the method: as §1
# [15] = biological target: Fuc(a1-2)Gal(b1-3)[Fuc(a1-4)]GlcNAc(b1-2)Man(a1-3)[Fuc(a1-2)Gal(b1-3)[Fuc(a1-4)]GlcNAc(b1-2)Man(a1-3)]Man(b1-4)GlcNAc(b1-4)GlcNAc
# Summary of the method: as §1
# [16] = biological target: Fuc(a1-2)Gal(b1-3)[Fuc(a1-4)]GlcNAc(b1-2)Man(a1-3)[Fuc(a1-2)Gal(b1-3)[Fuc(a1-4)]GlcNAc(b1-2)Man(a1-6)]Man(b1-4)GlcNAc(b1-4)[Fuc(a1-6)]GlcNAc(b1-4)[Fuc(a1-6)]GlcNAc
# Summary of the method: as §1
# [17] = biological target: Fuc(a1-2)Gal(b1-3)[Fuc(a1-4)]GlcNAc(b1-3)[Fuc(a1-3)[Gal(b1-4)]GlcNAc(b1-6)]Gal(b1-4)Glc
# Summary of the method: as §1
# [18] = biological target: Fuc(a1-2)Gal(b1-3)[Fuc(a1-4)]GlcNAc(b1-3)[Gal(b1-4)GlcNAc(b1-6)]Gal(b1-4)Glc
# Summary of the method: as §1
# Fuc(a1-2)Gal(b1-4)Glc = biological target: Fuc(a1-2)Gal(b1-4)Glc
# Summary of the method: as §1
# Fuc(a1-2)Gal(b1-4)Glc6S = biological target: Fuc(a1-2)Gal(b1-4)Glc6S
# Summary of the method: as §1
# Fuc(a1-2)Gal(b1-4)GlcNAc = biological target: Fuc(a1-2)Gal(b1-4)GlcNAc
# Summary of the method: as §1
# [19] = biological target: Fuc(a1-2)Gal(b1-4)GlcNAc(b1-2)Man
# Summary of the method: as §1
# [20] = biological target: Fuc(a1-2)Gal(b1-4)GlcNAc(b1-2)Man(a1-3)[Fuc(a1-2)Gal(b1-4)GlcNAc(b1-2)Man(a1-6)]Man(b1-4)GlcNAc(b1-4)GlcNAc
# Summary of the method: as §1
# [21] = biological target: Fuc(a1-2)Gal(b1-4)GlcNAc(b1-2)Man(a1-3)[Fuc(a1-2)Gal(b1-4)GlcNAc(b1-2)Man(a1-6)]Man(b1-4)GlcNAc(b1-4)[Fuc(a1-6)]GlcNAc
# Summary of the method: as §1
# [22] = biological target: Fuc(a1-2)Gal(b1-4)GlcNAc(b1-2)[Fuc(a1-2)Gal(b1-4)GlcNAc(b1-4)]Man(a1-3)[Fuc(a1-2)Gal(b1-4)GlcNAc(b1-2)Man(a1-6)]Man(b1-4)GlcNAc(b1-4)GlcNAc
# Summary of the method: as §1
# [23] = biological target: Fuc(a1-2)Gal(b1-4)GlcNAc(b1-3)Gal(b1-4)GlcNAc
# Summary of the method: as §1
# [24] = biological target: Fuc(a1-2)Gal(b1-4)GlcNAc(b1-3)Gal(b1-4)GlcNAc(b1-2)Man(a1-3)[Fuc(a1-2)Gal(b1-4)GlcNAc(b1-3)Gal(b1-4)GlcNAc(b1-2)Man(a1-6)]Man(b1-4)GlcNAc(b1-4)GlcNAc
# Summary of the method: as §1
binder,measurement,setting,value
B1,glycan array binding signal (z-score),Fuc(a1-2)Gal,-0.334
same,glycan array binding signal (z-score),Fuc(a1-2)Gal(b1-3)GalNAc,-0.178
same,glycan array binding signal (z-score),[1],0.073
same,glycan array binding signal (z-score),[2],0.07
same,glycan array binding signal (z-score),[3],-0.605
same,glycan array binding signal (z-score),[4],0.511
same,glycan array binding signal (z-score),[5],-0.491
same,glycan array binding signal (z-score),Fuc(a1-2)Gal(b1-3)GlcNAc,0.448
same,glycan array binding signal (z-score),[6],-0.041
same,glycan array binding signal (z-score),[7],0.89
same,glycan array binding signal (z-score),[8],-0.05
same,glycan array binding signal (z-score),[9],-0.507
same,glycan array binding signal (z-score),[10],0.638
same,glycan array binding signal (z-score),[11],0.403
same,glycan array binding signal (z-score),[12],-0.324
same,glycan array binding signal (z-score),[13],-0.258
same,glycan array binding signal (z-score),[14],-0.457
same,glycan array binding signal (z-score),[15],0.172
same,glycan array binding signal (z-score),[16],0.845
same,glycan array binding signal (z-score),[17],-0.063
same,glycan array binding signal (z-score),[18],-0.704
same,glycan array binding signal (z-score),Fuc(a1-2)Gal(b1-4)Glc,-0.411
same,glycan array binding signal (z-score),Fuc(a1-2)Gal(b1-4)Glc6S,-0.433
same,glycan array binding signal (z-score),Fuc(a1-2)Gal(b1-4)GlcNAc,-0.263
same,glycan array binding signal (z-score),[19],-0.198
same,glycan array binding signal (z-score),[20],0.155
same,glycan array binding signal (z-score),[21],1.31
same,glycan array binding signal (z-score),[22],0.665
same,glycan array binding signal (z-score),[23],-0.815
same,glycan array binding signal (z-score),[24],-0.158
